Laboratory results from patent publication US5869046A, “Altered polypeptides with increased half-life” (Genentech, Inc., priority 1995, dated 1999).

Assay: Pharmacokinetic study of anti-CD11/18 constructs in mice after intravenous administration (serum concentration by MAC-1 capture ELISA)
Type: in vivo, male Crl:CD-1 (ICR)BR VAF/Plus mice
Experimental: Pharmacokinetic Study of Anti-CD11/18 Constructs in Mice after Intravenous Administration
The objective of this single-dose pharmacokinetic study of five humanized huH52 anti-CD18 antibody fragments (constructs) in mice was to determine if non-specific clearance of antibody fragments is affected by alterations to amino acids in the constant domain. Serum samples were collected from male CD1 mice over a 24-hour period and human anti-CD18 serum concentrations were measured by ELISA.
The anti-CD18 antibody fragments investigated were derived from E.-coli-produced recombinant humanized monoclonal Fab antibody fragments as described above. The Fab fragment and the construct in which two Fab' subunits were joined together by two disulfide bonds were investigated. Lastly, three new versions of the original Fab were constructed by altering amino acids in the constant domain. See the Study Design table below for further description of the constructs.
The construct antigen-binding sites are directed against the CD18 subunit of the CD11/CD18 glycoprotein complex on the surface of leukocytes. These antibody fragments are chimpanzee and human-specific; therefore, the serum pharmacokinetic information obtained in mice provides a description of the non-specific clearance of the fragments.
Because linear pharmacokinetics were expected in this study, a single-dose level of 2 mg/kg was chosen rather than multiple-dose levels.
The pharmacokinetics of the five antibody constructs were studied in male Crl:CD-1® (ICR)BR VAF/Plus® mice (approximately 20-30 g). Five groups, each consisting of twenty mice, received an intravenous bolus dose of 2 mg/kg via the tail vein. Blood samples were collected at 5 and 30 minutes, 1, 2, 4, 8, 12, 16, 20, and 24 hours post-dose. Serum was harvested and concentrations of the antibody fragments were determined in a MAC-1 capture ELISA as follows:
96-Well microtiter plates were coated overnight with murine anti-CD18 monoclonal antibody. After overnight incubation at 4° C., plates were washed three times with ELISA wash buffer and blocked for 1 hour with ELISA diluent. ELISA wash buffer is phosphate-buffered saline (PBS)/0.05% Polysorbate™ 20. This buffer is prepared per liter as 50 mL 20×PBS/1.0% Polysorbate™ 20 (a mixture obtained by dissolving 160 g NaCl, 4.0 g KCl, 22.6 g Na2 HPO4, and 4.0 g KH2 PO4 in glass-distilled or deionized water, adding 10.0 mL Polysorbate™ 20 [Sigma™ P-1379 or equivalent], qs to 1000 mL, and sterile filtering using a 0.22 μm or smaller filter), and qs to 1.0 L of distilled or deionized water, stored at ambient temperature. The expiration period is 2 weeks from the date of preparation.
The ELISA diluent was PBS/0.5% BSA/0.05% Polysorbate™ 20/0.01% Thimerosal™/1 mM CaCl2 /1 mM MgCl2. This diluent was prepared per liter as 5.0 g bovine serum albumin (Armour™ N0068 or equivalent), 50 mL 20×PBS/1.0% Polysorbate™ 20/0.2% Thimerosal™ (a mixture obtained by dissolving 160 g NaCl, 4.0 g KCl, 22.6 g Na2 HPO4, and 4.0 g KH2 PO4 in glass-distilled or deionized water, and adding 10.0 mL Polysorbate™ 20 [Sigma P-1379 or equivalent] and 2.0 g Thimerosal™ [Sigma T-5125 or equivalent], qs to 1000 mL), 0.1% (v/v) 1M CaCl2 (Genentech™ A3165), 0.1% (v/v) 1M MgCl2 (Genentech™ A3167), qs to 1.0 L of distilled or deionized water, and stored at 2°-8° C, with the expiration period 1 month from the date of preparation.
After blocking, the plates were washed again three times with ELISA wash buffer. Soluble MAC1 (CD11b/CD18 as described by Berman et al., J. Cell. Biochem., 52: 183-195 [1993]) was then captured out of a concentrate of media, conditioned by CHO cells expressing the truncated CD11b/CD18 heterodimer. After a 2-hour incubation period, the plates were washed six times with ELISA wash buffer and 100 μL of the mouse serum sample being tested or the standard containing the homologous recombinant human anti-CD18 Fab were added. […]

[1] = single i.v. bolus 2 mg/kg, mice, two-compartment model

B1: Fab v1B: Fab v1b incorporated oligos V1A and V1B; derived from anti-CD18 antibody (SEQ ID NO: 10) (antibody)
heavy: ASTKGPSVFPLAPSPKNSSMISNTPALGCLVKDYFPEPVTVSWNSGALTSGVHTFPAVLQSSGLYSLSSVVTVPHQSLGTQTYICNVNHKPSNTKVDKRV
Clearance (2 mg/kg i.v., mice): 1.33 mL/min/kg | Clearance relative to the double-disulfide (Fab')2 (2 mg/kg i.v., mice, greater clearance over double-disulfide (Fab')2): about three-fold higher | Slower clearance from the serum relative to the original Fab (2 mg/kg i.v., mice, more slowly than original Fab): 2 fold | Half life (in words): longer half life | CO (zero-time concentration estimated from the disposition function) (single i.v. bolus 2 mg/kg, mice): 44 µg/mL | Kcp (rate constant, transfer from the central to a peripheral compartment) [1]: 4.01 h⁻¹ | Kpc (rate constant, transfer from the peripheral to the central compartment) [1]: 3.42 h⁻¹
